From publication PMC6919601, “Identification of Plasmodium dipeptidyl aminopeptidase allosteric inhibitors by high throughput screening” (PLoS ONE, 2019)
Among all 110,000 compounds or so, about 230 (0.21%) showed an effect of 50% or more. The list shows a part of the results.

Target: DPAP1 (Plasmodium falciparum, UniProt Q8IIJ9)
Experiment: primary screen, percent inhibition; read by cleavage of a fluorogenic dipeptide substrate; higher = more effect of the substance
Set-up: species or system P. falciparum D10 trophozoite lysates; single well
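Also: 30 min substrate incubation versus DMSO and 10 µM JCP410 controls.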

Chain of DPAP1 (Q8IIJ9 whole entry, looked up): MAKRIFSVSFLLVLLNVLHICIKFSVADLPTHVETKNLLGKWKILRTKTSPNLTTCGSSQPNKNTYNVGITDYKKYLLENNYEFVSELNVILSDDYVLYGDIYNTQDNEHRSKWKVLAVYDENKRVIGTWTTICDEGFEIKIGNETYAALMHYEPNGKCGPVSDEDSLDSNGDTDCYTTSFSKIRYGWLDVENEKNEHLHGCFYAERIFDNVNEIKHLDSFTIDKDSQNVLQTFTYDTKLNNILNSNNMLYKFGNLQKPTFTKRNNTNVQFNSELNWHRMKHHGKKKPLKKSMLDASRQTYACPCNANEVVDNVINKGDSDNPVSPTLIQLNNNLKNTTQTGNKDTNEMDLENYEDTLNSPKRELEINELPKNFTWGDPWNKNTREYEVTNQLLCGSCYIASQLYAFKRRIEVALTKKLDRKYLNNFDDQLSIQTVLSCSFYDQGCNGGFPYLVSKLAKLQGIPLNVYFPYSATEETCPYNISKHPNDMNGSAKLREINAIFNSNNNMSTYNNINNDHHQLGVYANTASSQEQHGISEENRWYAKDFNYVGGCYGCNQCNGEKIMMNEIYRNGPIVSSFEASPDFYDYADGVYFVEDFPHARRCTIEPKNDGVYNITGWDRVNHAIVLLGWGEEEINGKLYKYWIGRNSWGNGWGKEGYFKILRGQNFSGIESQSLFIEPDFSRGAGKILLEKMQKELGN

In order of rising “% Inhibition @ 10 uM” value:
1. Cc1ccc(NC(=O)CCn2nc(C(F)(F)F)cc2C)nc1  -9.6%
2. CC(Nc1nc2c(S(=O)(=O)c3ccccc3)nnn2c2ccsc12)c1ccccc1 (centres unmarked)  -8.43%
3. O=C(c1ccccc1F)N(Cc1ccco1)Cc1ccccc1Cl  -5.91%
4. CC(C)OCCCNc1cnn(C23CC4CC(CC(C4)C2)C3)c(=O)c1Cl  -5.27%
5. O=C(NCCC1=CCCCC1)C(NS(=O)(=O)c1cccc2nsnc12)c1ccccc1 (centres unmarked)  -5.1%
6. CCN(CC)C(=O)CSc1nc2sc3c(c2c(=O)n1C)CCC3  -4.76%
7. Cc1nn(CCCC(=O)NC(C)CCc2ccccc2)c(=O)c2c1sc1ccccc12 (centres unmarked)  -4.59%
8. COc1cccc(C(=O)Nc2nc(-c3nnn(-c4cc(OC)ccc4OC)c3C)ns2)c1  -4.55%
9. COc1ccc(N2C(N)=C(C#N)C(c3ccc4c(c3)OCO4)C3=C2CCCC3=O)cc1 (centres unmarked)  -4.48%
10. O=C(Nc1ccccc1[N+](=O)[O-])C12CC3CC(CC(C3)C1)C2  -4.21%
11. Cc1nnc2c(NCc3ccccc3)nc3ccccc3n12  -3.49%
12. CCn1cc(CCC(=O)NCCc2ccc(Cl)cc2)c2ccccc21  -3.44%
13. COc1cccc(C(=O)N2C(C)CCCC2C)c1 (centres unmarked)  -3.35%
14. CN1CCN(S(=O)(=O)c2ccc3ccccc3c2)CC1  -3.27%
15. COc1ccc(OC)c(CCNCc2c(C(=O)O)n(C)c3cc(OC)ccc23)c1  -3.27%
16. O=C(O)CCNC(=O)c1ccc(C(F)(F)F)cc1  -3.04%
17. C=C(C)COc1ccc2c(=O)c(Oc3ccc(C(=O)OCC)cc3)coc2c1  -2.91%
18. CCC(NC(=O)c1cncc(Br)c1)c1ccccc1 (centres unmarked)  -2.74%
19. Cc1cc(O)ccc1NC(=O)c1ccccc1C(=O)O  -2.65%
20. CC(NC(=O)C1CC1c1ccccc1)c1ccccc1 (centres unmarked)  -2.51%
21. O=C([C@@H](c1ccccc1)N1Cc2ccccc2C1=O)N1CCN(Cc2ccccc2)CC1  -2.25%
22. CN1C(=O)/C(=C2\SC(=O)N(Cc3ccccc3)C2=O)c2ccccc21  -2.17%
23. O=C(O)C1CC=CCC1C(=O)Nc1ccc(Br)c2cccnc12 (centres unmarked)  -2.07%
24. CCOC(=O)C1=C(C)N=C(C)/C(=C(/O)OCC)C1c1ccc(Cl)c(Cl)c1 (centres unmarked)  -1.85%
25. COc1ccc(CN2CC(C)CC(C)C2)c(OC)c1 (centres unmarked)  -1.81%
26. O=C(Cn1ncn2cccc2c1=O)NCCCc1ccccc1  -1.65%
27. CCOCCCn1c(=N)c(S(=O)(=O)c2ccc(C)cc2)cc2c(=O)n3cc(C)ccc3nc21  -1.52%
28. CC1=C(C(=O)OCC(C)C)C(c2ccc(Br)cc2)NC(=O)N1 (centres unmarked)  -1.37%
29. CCCNC(=O)c1cc2sccc2n1Cc1ccc(C)cc1  -1.37%
30. CCCN1C(=O)c2cc(C(=O)NCc3ccc(OC)cc3)ccc2C1O (centres unmarked)  -1.24%
31. COc1ccc(CO/C(O)=C2\C(C)=NC3=C(C(=O)CCC3)C2c2cccs2)cc1 (centres unmarked)  -1.06%
32. COc1ccc(C(O)(Cc2ccccc2)C(CN2CCOCC2)c2ccccc2)cc1 (centres unmarked)  -0.551%
33. Cc1ccccc1/C=C(/C#N)C(=O)NCc1ccccc1  -0.267%
34. CCOC(=O)c1c(C)nc2n(CCN3CCCCC3)c3ccccc3n12  0.0538%
35. CC(C)C[C@H](NC(=O)c1ccc(F)c(F)c1)C(=O)NCC#N  0.174%
36. O=C(NCc1cccnc1)/C(=C/c1cccnc1)NC(=O)c1ccccc1  0.27%
37. Nc1sc2c(c1C(=O)NC1CCCCC1)CCC2  0.389%
38. c1cc2c(cc1OC1CCNCC1)OCO2  0.635%
39. COCC(C)NCc1cccc(OC)c1 (centres unmarked)  0.916%
40. c1ccc2sc(Sc3ncnc4sc5c(c34)CCCC5)nc2c1  1.21%
41. Cc1ccccc1C(=O)Nc1scc(CC(C)C)c1C(=O)O  1.25%
42. O=c1[nH]c(=S)[nH]c2sc3c(c12)CCN(Cc1ccccc1)C3  1.4%
43. COc1ccc(OC)c(C2C(C#N)=C(N)Oc3cc(O)c(Cl)cc32)c1 (centres unmarked)  1.42%
44. CCCCn1c(=O)c2oc3ccccc3c2n(Cc2ccccc2F)c1=O  1.68%
45. OCCN1CCN(Cc2ccc(Br)s2)CC1  1.83%
46. COc1ccc(-c2noc(CNC(=O)CCN3C(=O)c4ccccc4C3=O)n2)cc1  1.9%
47. CCN1CCN(CC(=O)c2ccc3cc[nH]c3c2)CC1  2.13%
48. CC(C)(C)NS(=O)(=O)c1ccc(NC(=O)c2ccc(Cl)cc2)cc1  2.13%
49. CCOc1ccc(/C=C/c2nc(C#N)c(N3CC(C)OC(C)C3)o2)cc1 (centres unmarked)  2.54%
50. C=CCNC(=O)CSc1nc2nc(C)cc(C)n2n1  2.99%
51. O=C(CSc1nc(-c2ccco2)cc(C(F)(F)F)n1)Nc1ccccc1  3.04%
52. CC1=NN(C(=O)CCCc2ccccc2)C(O)(C(F)(F)F)C1 (centres unmarked)  3.05%
53. Cc1ccnc(Nc2nc(-c3sc(C)nc3C)cs2)c1  3.38%
54. CN1C(=O)NC(=O)/C(=C/c2cc3c(cc2Cl)OCO3)C1=O  3.95%
55. Oc1ccc(CN2CCN(c3ccc(Cl)cc3)CC2)cc1  4.62%
56. COc1ccc(C2=CC(c3ccc(OC)cc3OC)n3ncnc3N2)cc1 (centres unmarked)  4.86%
57. CCOc1cc(/C=C2/C(=N)N3C(=NC2=O)SN=C3S(C)(=O)=O)ccc1OCc1ccccc1  5.06%
58. N#Cc1nc(COc2ccccc2)oc1NCc1ccccc1Cl  5.54%
59. CSc1ccc(CCNC(=O)Nc2cn(C)c(=O)c3ccccc23)cc1  5.85%
60. CCOc1cc(C(=O)N2CCC(C(N)=O)CC2)cc(OCC)c1OCC  6.61%
61. CCCCN(C)C(=O)CCNC(=O)Cn1ccc2ccccc2c1=O  7.85%
62. Cc1c(C(=O)NCc2ccc3c(c2)OCO3)oc2ccc(S(=O)(=O)N(C)C3CCCCC3)cc12  9.56%
63. COC(=O)C1=CN(C)C=C(C(=O)OC)C1c1ccccc1OCc1ccccc1  13.3%
64. COc1cc(C)nc(N(C)S(=O)(=O)c2ccc(C)cc2)n1  17%
65. Oc1ccc(/C=N/n2cnnc2)cc1  23.8%
